Measurements taken from patent US10407467B2, “Polymyxin derivatives and their use in combination therapy together with different antibiotics” (priority 2013, dated 2019).
For part of these data: At least one peptide structure holds a part that was inferred or is arguable (an end, a ring closure or a residue). For part of these data: At least one structure is not confirmed: it was looked up by name or label, or the drawing left a doubt. Some of these results come from one statement about several compounds together. Bridge positions count the residues as written; N and C are the ends. Square brackets hold non-standard residues; d marks the D form. Peptide text beside a SMILES is read from it. * marks the point of attachment. ξ: configuration not given here. ξHexahydromandeloyl = O=C(C(O)C1CCCCC1)*; ξβ3hGly(cHex) = NC(CC(=O)*)C1CCCCC1; X12 = CC(C)C[C@H](N)[C@H](O)C(=O)*; X22 = O=C(C[C@@H]1Cc2ccccc2CN1)*; Thr(3ξ) = CC(O)[C@H](N)C(=O)O; Dab = NCC[C@H](N)C(=O)O; X3 = O=C([C@H]1CCCNC1)*; Dap = NC[C@H](N)C(=O)O; X1 = CCCCCCC(O)C(=O)*; GABA = NCCCC(=O)O

How the values were obtained:
[1] = test system: Acinetobacter baumannii; assay: MIC, sole activity (no second agent); type: cell-based; settings: Table 6A; no second agent; different supplier of Cation-adjusted MHB
Method: (§1) To evaluate the potency and spectrum of the compounds both alone and in combination with another agent, susceptibility testing was performed against up to four strains of each of the four Gram negative pathogens, Escherichia coli, Pseudomonas aeruginosa, Klebsiella pneumoniae and Acinetobacter baumannii.
(§2) The inoculum was prepared by making a direct suspension of isolated colonies (selected from an 18-24 hour Mueller-Hinton agar plate) adjusted to the 0.5 McFarland standard.
(§3) The assays were performed in duplicate.
(§4) In cases where the duplicate values varied by less than 2-fold, the lower of the two values is reported. If a variation of greater than 2-fold was observed, the assay was considered non-valid. Several of the compounds were subjected to multiple tests, and where this is the case, the MIC reflects the modal value obtained.
(§5) MICs were determined as described herein, except that a different supplier of Cation-adjusted MHB was used. […] Values are reported relative to Polymyxin B.

[2] = test system: Escherichia coli; assay: MIC, sole activity (no second agent); type: cell-based; settings: Table 6A; no second agent; different supplier of Cation-adjusted MHB
Method: as §1, §2, §3, §4, §5

[3] = test system: Klebsiella pneumoniae; assay: MIC, sole activity (no second agent); type: cell-based; settings: Table 6A; no second agent; different supplier of Cation-adjusted MHB
Method: as §1, §2, §3, §4, §5

[4] = test system: Pseudomonas aeruginosa; assay: MIC, sole activity (no second agent); type: cell-based; settings: Table 6A; no second agent; different supplier of Cation-adjusted MHB
Method: as §1, §2, §3, §4, §5

[5] = test system: Escherichia coli isolate ATCC25922; settings: 10 mg/kg/day (5 mg/kg BID subcutaneous), neutropenic CD-1 mice, 24 h post-infection
Method: At 1 h, the CFU count was determined from 5 mice and the remaining mice (five per group) were treated with a subcutaneous injection of the drug at +1 and 6 hr post-infection.
Twenty-four hours after infection, the mice were euthanized humanely. The muscle of the right thigh of each animal was harvested, homogenized, serially diluted and plated on Brain Heart Infusion agar+0.5% charcoal (w/v) for CFU determination. Decrease of the total CFU of right thigh as compared to control counts at 24 h post-infection was determined for each dose group.

[6] = test system: E. coli ATCC25922; settings: 1:1 combination with rifampicin, total 5 mg/kg/dose, IV at 1, 3.5 and 6 hours post infection, neutropenic CD-1 mice, 9 hours
Method: Mice were rendered temporarily neutropenic by immunosuppression with cyclophosphamide at 150 mg/kg 4 days before infection and 100 mg/kg 1 day before infection by intraperitoneal injection.
Compounds were administered in solution by intravenous (IV) injection into the lateral tail vein. […] The vehicle control group was treated with vehicle (0.9% saline for injection) also at 10 mL/kg IV thrice at 1, 3.5 and 6 hours post infection.
At 1 hour post infection, 4 animals were humanely euthanized using pentabarbitone overdose to provide a pre-treatment control group. At 9 hours post infection, the clinical condition of all animals was assessed prior to them being humanely euthanized by pentabarbitone overdose. Animal weight was determined before both thighs were removed and weighed individually. Individual thigh tissue samples were homogenized in ice cold sterile phosphate buffered saline. Thigh homogenates were then quantitatively cultured onto CLED agar and incubated at 37° C. for 24 hours before colonies were counted.

Row | Compound | MIC A. baumannii ATCC BAA-747 [1] | MIC A. baumannii NCTC 13424 [1] | MIC E. coli ATCC25922 [2] | MIC E. coli NCTC 13441 [2] | MIC K. pneumoniae ATCC 4352 [3] | MIC K. pneumoniae ATCC BAA-2146 [3] | MIC P. aeruginosa ATCC 27853 [4] | MIC P. aeruginosa CCUG 59347 [4] | reduction in bacterial counts [5] | reduction in bacterial counts [6]
1 | CC(C)C[C@@H]1NC(=O)[C@@H](Cc2ccccc2)NC(=O)[C@H](CCN)NC(=O)[C@@H](NC(=O)[C@H](CCN)NC(=O)[C@@H](NC(=O)[C@H](CCN)NC(=O)[C@H]2CCCNC2)C(C)O)CCNC(=O)[C@H](C(C)O)NC(=O)[C@H](CCN)NC(=O)[C@H](CCN)NC1=O (stereo partly drawn) [Example A22, (S)-Piperidine-3-carbonyl polymyxin B decapeptide] (X3-[Dab][Thr(3ξ)][Dab][Dab][Dab][dF]L[Dab][Dab][Thr(3ξ)]; lactam 4-C) | 8 micrograms/mL | 8 micrograms/mL | >8 micrograms/mL | >8 micrograms/mL | >8 micrograms/mL | >8 micrograms/mL | 1 micrograms/mL | 2 micrograms/mL |  | 
2 | CCCCCCC(O)C(=O)N[C@H](C(=O)N[C@@H](CCN)C(=O)N[C@H]1CCNC(=O)[C@H]([C@@H](C)O)NC(=O)[C@H](CCN)NC(=O)[C@H](CCN)NC(=O)[C@H](CC(C)C)NC(=O)[C@@H](Cc2ccccc2)NC(=O)[C@H](CCN)NC1=O)[C@@H](C)O (stereo partly drawn) [Example 1, [2(R,S)-2-Hydroxyoctanoyl] polymyxin B nonapeptide] (X1-[Thr(3ξ)][Dab][Dab][Dab][dF]L[Dab][Dab][Thr(3ξ)]; lactam 3-C) |  |  |  |  |  |  |  |  | over 3 log10 | 
3 | CC(C)C[C@@H]1NC(=O)[C@@H](Cc2ccccc2)NC(=O)[C@H](CCN)NC(=O)[C@@H](NC(=O)[C@H](CCN)NC(=O)[C@@H](NC(=O)[C@H](CCN)NC(=O)C(O)C2CCCCC2)C(C)O)CCNC(=O)[C@H](C(C)O)NC(=O)[C@H](CCN)NC(=O)[C@H](CCN)NC1=O (stereo partly drawn) [Example A3, 2-(RS)-(2-Hydroxy-2-cyclohexyl)ethanoyl polymyxin B decapeptide] (ξHexahydromandeloyl-[Dab][Thr(3ξ)][Dab][Dab][Dab][dF]L[Dab][Dab][Thr(3ξ)]; lactam 4-C) | 2 micrograms/mL | 1 micrograms/mL | 0.25 micrograms/mL | 0.25 micrograms/mL | 0.25 micrograms/mL | 0.25 micrograms/mL | 0.5 micrograms/mL | 1 micrograms/mL |  | 
4 | CC(C)C[C@@H]1NC(=O)[C@@H](Cc2ccccc2)NC(=O)[C@H](CCN)NC(=O)[C@@H](NC(=O)[C@H](CCN)NC(=O)[C@@H](NC(=O)CC(N)C2CCCCC2)C(C)O)CCNC(=O)[C@H](C(C)O)NC(=O)[C@H](CCN)NC(=O)[C@H](CCN)NC1=O (stereo partly drawn) [Example 10, [3(R,S)-3-Amino-3-cyclohexane-propanoyl]Polymyxin B nonapeptide] ({ξβ3hGly(cHex)}-[Thr(3ξ)][Dab][Dab][Dab][dF]L[Dab][Dab][Thr(3ξ)]; lactam 3-C) |  |  |  |  |  |  |  |  |  | over 4 log10
5 | CC(C)C[C@@H]1NC(=O)[C@@H](Cc2ccccc2)NC(=O)[C@H](CCN)NC(=O)[C@@H](NC(=O)[C@H](CN)NC(=O)[C@@H](NC(=O)[C@H](CCN)NC(=O)[C@H]2CCCNC2)C(C)O)CCNC(=O)[C@H](C(C)O)NC(=O)[C@H](CCN)NC(=O)[C@H](CCN)NC1=O (stereo partly drawn) [Example A13, [(3S)-piperidine-3-carbonyl]-L-Dab-L-Thr-L-Dap polymyxin B heptapeptide] (X3-[Dab][Thr(3ξ)][Dap][Dab][Dab][dF]L[Dab][Dab][Thr(3ξ)]; lactam 4-C) | 8 micrograms/mL | 8 micrograms/mL | >8 micrograms/mL | 8 micrograms/mL | >8 micrograms/mL | >8 micrograms/mL | 0.5 micrograms/mL | 1 micrograms/mL |  | 
6 | CC(C)C[C@@H]1NC(=O)[C@@H](Cc2ccccc2)NC(=O)[C@H](CCN)NC(=O)[C@@H](NC(=O)[C@H](CCN)NC(=O)[C@@H](NC(=O)CCCN)C(C)O)CCNC(=O)[C@H](C(C)O)NC(=O)[C@H](CCN)NC(=O)[C@H](CCN)NC1=O (stereo partly drawn) [Example 4, 4-Aminobutanoyl polymyxin B nonapeptide] (H-[GABA][Thr(3ξ)][Dab][Dab][Dab][dF]L[Dab][Dab][Thr(3ξ)]; lactam 4-C) |  |  |  |  |  |  |  |  | over 3 log10 | 
7 | CC(C)C[C@@H]1NC(=O)[C@@H](Cc2ccccc2)NC(=O)[C@H](CCN)NC(=O)[C@@H](NC(=O)[C@H](CCN)NC(=O)[C@@H](NC(=O)[C@H](CN)NC(=O)CC(N)C2CCCCC2)C(C)O)CCNC(=O)[C@H](C(C)O)NC(=O)[C@H](CCN)NC(=O)[C@H](CCN)NC1=O (stereo partly drawn) [Example A6, [3(R,S)-3-Amino-3-cyclohexanepropanoyl]-L-Dap-polymyxin B nonapeptide] ({ξβ3hGly(cHex)}-[Dap][Thr(3ξ)][Dab][Dab][Dab][dF]L[Dab][Dab][Thr(3ξ)]; lactam 4-C) | 2 micrograms/mL | 4 micrograms/mL | 4 micrograms/mL | 2 micrograms/mL | 4 micrograms/mL |  | 0.25 micrograms/mL | 0.5 micrograms/mL |  | 
8 | CC(C)C[C@@H]1NC(=O)[C@@H](Cc2ccccc2)NC(=O)[C@H](CCN)NC(=O)[C@@H](NC(=O)[C@H](CN)NC(=O)[C@@H](NC(=O)[C@H](CCN)NC(=O)[C@@H](O)[C@@H](N)CC(C)C)C(C)O)CCNC(=O)[C@H](C(C)O)NC(=O)[C@H](CCN)NC(=O)[C@H](CCN)NC1=O (stereo partly drawn) [Example A17, [(2S,3S)-3-Amino-2-hydroxy-5-methylhexanoyl]-L-Dab-L-Thr-L-Dap polymyxin B heptapeptide] (X12-[Dab][Thr(3ξ)][Dap][Dab][Dab][dF]L[Dab][Dab][Thr(3ξ)]; lactam 4-C) | 8 micrograms/mL | 8 micrograms/mL | 8 micrograms/mL | 4 micrograms/mL | 4 micrograms/mL | 4 micrograms/mL | 0.25 micrograms/mL | 0.5 micrograms/mL |  | 
9 | CCCCCC(N)CC(=O)N[C@H](C(=O)N[C@@H](CCN)C(=O)N[C@H]1CCNC(=O)[C@H](C(C)O)NC(=O)[C@H](CCN)NC(=O)[C@H](CCN)NC(=O)[C@H](CC(C)C)NC(=O)[C@@H](Cc2ccccc2)NC(=O)[C@H](CCN)NC1=O)C(C)O (single isomer, unassigned; isomer 2) [Example A33, 3-(RS)-3-amino octanoyl polymyxin B nonapeptide. Isomer 2] | 2 micrograms/mL | 1 micrograms/mL | 0.25 micrograms/mL | 0.5 micrograms/mL | 0.5 micrograms/mL | 0.5 micrograms/mL | 0.25 micrograms/mL | 0.5 micrograms/mL |  | 
10 | CC(C)C[C@@H]1NC(=O)[C@@H](Cc2ccccc2)NC(=O)[C@H](CCN)NC(=O)[C@@H](NC(=O)[C@H](CCN)NC(=O)[C@@H](NC(=O)C[C@@H]2Cc3ccccc3CN2)C(C)O)CCNC(=O)[C@H](C(C)O)NC(=O)[C@H](CCN)NC(=O)[C@H](CCN)NC1=O (stereo partly drawn) [Example A14, (S)-2-((1,2,3,4)-tetrahydroisoquinolin-3-yl) ethanoyl polymyxin B nonapeptide] (X22-[Thr(3ξ)][Dab][Dab][Dab][dF]L[Dab][Dab][Thr(3ξ)]; lactam 3-C) | 8 micrograms/mL | 8 micrograms/mL | 2 micrograms/mL | 2 micrograms/mL | 1 micrograms/mL |  | 1 micrograms/mL | 1 micrograms/mL |  | 
